According to a compilation of properties of binary mixtures (doi:10.1016/j.jct.2020.106366):
Some of these densities may be calculated back from excess volumes.

Assay: xn = mol fraction of the nth substance listed
Conditions: 100 kPa

SMILES: CCCCCC[n+]1ccccc1.O=C([O-])C(F)(F)F + O
- mass density (293.15 K, x1 = 0.8314): 1263.1 kg/m3
- mass density (293.15 K, x1 = 0.8883): 1273.3 kg/m3
- mass density (293.15 K, x1 = 0.9008): 1274.9 kg/m3
- mass density (293.15 K, x1 = 0.9309): 1279.9 kg/m3
- mass density (293.15 K, x1 = 0.9629): 1284.1 kg/m3
- mass density (298.15 K, x1 = 0.8314): 1259.2 kg/m3
- mass density (298.15 K, x1 = 0.8573): 1264.8 kg/m3
- mass density (298.15 K, x1 = 0.8883): 1269.4 kg/m3
- mass density (298.15 K, x1 = 0.9309): 1276 kg/m3
- mass density (298.15 K, x1 = 0.9629): 1280.2 kg/m3
- mass density (303.15 K, x1 = 0.8314): 1255.4 kg/m3
- mass density (303.15 K, x1 = 0.8883): 1265.7 kg/m3
- mass density (303.15 K, x1 = 0.9008): 1267.2 kg/m3
- mass density (303.15 K, x1 = 0.9309): 1272.3 kg/m3
- mass density (303.15 K, x1 = 0.9629): 1276.4 kg/m3
- mass density (308.15 K, x1 = 0.8573): 1257 kg/m3
- mass density (308.15 K, x1 = 0.9309): 1268.3 kg/m3
- mass density (308.15 K, x1 = 0.9629): 1272.4 kg/m3
- mass density (313.15 K, x1 = 0.8314): 1247.3 kg/m3
- mass density (313.15 K, x1 = 0.8883): 1257.6 kg/m3
- mass density (313.15 K, x1 = 0.9309): 1264.2 kg/m3
- mass density (313.15 K, x1 = 0.9629): 1268.3 kg/m3
- mass density (318.15 K, x1 = 0.8314): 1243.4 kg/m3
- mass density (318.15 K, x1 = 0.8883): 1253.6 kg/m3
- mass density (318.15 K, x1 = 0.9008): 1255.2 kg/m3
- mass density (318.15 K, x1 = 0.9629): 1264.4 kg/m3
- mass density (323.15 K, x1 = 0.8314): 1239.4 kg/m3
- mass density (323.15 K, x1 = 0.8573): 1245 kg/m3
- mass density (323.15 K, x1 = 0.8883): 1249.6 kg/m3
- mass density (323.15 K, x1 = 0.9008): 1251.2 kg/m3
- mass density (323.15 K, x1 = 0.9309): 1256.2 kg/m3
- mass density (323.15 K, x1 = 0.9629): 1260.4 kg/m3
- mass density (328.15 K, x1 = 0.8314): 1235.6 kg/m3
- mass density (328.15 K, x1 = 0.8573): 1241.2 kg/m3
- mass density (328.15 K, x1 = 0.8883): 1245.9 kg/m3
- mass density (328.15 K, x1 = 0.9008): 1247.4 kg/m3
- mass density (328.15 K, x1 = 0.9309): 1252.5 kg/m3
- mass density (328.15 K, x1 = 0.9629): 1256.6 kg/m3
- mass density (333.15 K, x1 = 0.8314): 1231.8 kg/m3
- mass density (333.15 K, x1 = 0.8573): 1237.4 kg/m3
- mass density (333.15 K, x1 = 0.9008): 1243.6 kg/m3
- mass density (333.15 K, x1 = 0.9309): 1248.7 kg/m3
- mass density (333.15 K, x1 = 0.9629): 1252.8 kg/m3
- mass density (338.15 K, x1 = 0.8314): 1227.8 kg/m3
- mass density (338.15 K, x1 = 0.8573): 1233.4 kg/m3
- mass density (338.15 K, x1 = 0.8883): 1238.1 kg/m3
- mass density (338.15 K, x1 = 0.9008): 1239.6 kg/m3
- mass density (338.15 K, x1 = 0.9309): 1244.7 kg/m3
- mass density (338.15 K, x1 = 0.9629): 1248.8 kg/m3
- mass density (343.15 K, x1 = 0.8314): 1224.4 kg/m3
- mass density (343.15 K, x1 = 0.8573): 1230 kg/m3
- mass density (343.15 K, x1 = 0.8883): 1234.7 kg/m3
- mass density (343.15 K, x1 = 0.9008): 1236.2 kg/m3
- mass density (343.15 K, x1 = 0.9629): 1245.4 kg/m3

SMILES: CC[n+]1ccccc1.O=C([O-])C(F)(F)F + O
- mass density (293.15 K, x1 = 0.9267): 1414.2 kg/m3
- mass density (293.15 K, x1 = 0.9632): 1417.1 kg/m3
- mass density (298.15 K, x1 = 0.8779): 1404.4 kg/m3
- mass density (298.15 K, x1 = 0.8977): 1406.7 kg/m3
- mass density (298.15 K, x1 = 0.9109): 1408.5 kg/m3
- mass density (298.15 K, x1 = 0.9267): 1410.1 kg/m3
- mass density (298.15 K, x1 = 0.9632): 1413 kg/m3
- mass density (298.15 K, x2 = 0.0181): 1415.1 kg/m3
- mass density (303.15 K, x1 = 0.8977): 1402.7 kg/m3
- mass density (303.15 K, x1 = 0.9109): 1404.7 kg/m3
- mass density (303.15 K, x1 = 0.9267): 1406.3 kg/m3
- mass density (303.15 K, x1 = 0.9632): 1409.3 kg/m3
- mass density (303.15 K, x2 = 0.0181): 1411.3 kg/m3
- mass density (308.15 K, x1 = 0.8779): 1396.4 kg/m3
- mass density (308.15 K, x1 = 0.8977): 1398.6 kg/m3
- mass density (308.15 K, x1 = 0.9109): 1400.5 kg/m3
- mass density (308.15 K, x1 = 0.9267): 1402.2 kg/m3
- mass density (308.15 K, x1 = 0.9632): 1405 kg/m3
- mass density (308.15 K, x2 = 0.0181): 1407.3 kg/m3
- mass density (313.15 K, x1 = 0.8779): 1392.7 kg/m3
- mass density (313.15 K, x1 = 0.8977): 1394.9 kg/m3
- mass density (313.15 K, x1 = 0.9109): 1396.8 kg/m3
- mass density (313.15 K, x1 = 0.9267): 1398.4 kg/m3
- mass density (313.15 K, x1 = 0.9632): 1401.4 kg/m3
- mass density (313.15 K, x2 = 0.0181): 1403.5 kg/m3
- mass density (318.15 K, x1 = 0.8779): 1389.3 kg/m3
- mass density (318.15 K, x1 = 0.8977): 1391.5 kg/m3
- mass density (318.15 K, x1 = 0.9109): 1393.5 kg/m3
- mass density (318.15 K, x1 = 0.9632): 1397.9 kg/m3
- mass density (318.15 K, x2 = 0.0181): 1400.1 kg/m3
- mass density (323.15 K, x1 = 0.9267): 1391.2 kg/m3
- mass density (323.15 K, x1 = 0.9632): 1394 kg/m3
- mass density (328.15 K, x1 = 0.8779): 1381.2 kg/m3
- mass density (328.15 K, x1 = 0.8977): 1383.4 kg/m3
- mass density (328.15 K, x1 = 0.9109): 1385.4 kg/m3
- mass density (328.15 K, x1 = 0.9267): 1386.9 kg/m3
- mass density (328.15 K, x1 = 0.9632): 1389.8 kg/m3
- mass density (328.15 K, x2 = 0.0181): 1392 kg/m3
- mass density (333.15 K, x1 = 0.8977): 1379 kg/m3
- mass density (333.15 K, x1 = 0.9109): 1381.1 kg/m3
- mass density (333.15 K, x1 = 0.9267): 1382.6 kg/m3
- mass density (333.15 K, x1 = 0.9632): 1385.4 kg/m3
- mass density (333.15 K, x2 = 0.0181): 1387.7 kg/m3
- mass density (338.15 K, x1 = 0.8977): 1374.8 kg/m3
- mass density (338.15 K, x1 = 0.9109): 1376.6 kg/m3
- mass density (338.15 K, x1 = 0.9267): 1378.5 kg/m3
- mass density (338.15 K, x1 = 0.9632): 1381.2 kg/m3
- mass density (343.15 K, x1 = 0.8779): 1368.7 kg/m3
- mass density (343.15 K, x1 = 0.8977): 1370.4 kg/m3
- mass density (343.15 K, x1 = 0.9109): 1372 kg/m3
- mass density (343.15 K, x1 = 0.9267): 1373.9 kg/m3
- mass density (343.15 K, x1 = 0.9632): 1376.9 kg/m3
- mass density (343.15 K, x2 = 0.0181): 1379.1 kg/m3

SMILES: CCC[n+]1ccccc1.O=C([O-])C(F)(F)F + O
- mass density (293.15 K, x1 = 0.8621): 1377.7 kg/m3
- mass density (293.15 K, x1 = 0.8919): 1381.5 kg/m3
- mass density (293.15 K, x1 = 0.9091): 1383.3 kg/m3
- mass density (293.15 K, x1 = 0.9269): 1385.1 kg/m3
- mass density (293.15 K, x1 = 0.9443): 1386.5 kg/m3
- mass density (293.15 K, x1 = 0.961): 1387.9 kg/m3
- mass density (298.15 K, x1 = 0.8621): 1374.1 kg/m3
- mass density (298.15 K, x1 = 0.8919): 1377.8 kg/m3
- mass density (298.15 K, x1 = 0.9091): 1379.6 kg/m3
- mass density (298.15 K, x1 = 0.9269): 1381.6 kg/m3
- mass density (298.15 K, x1 = 0.9443): 1382.9 kg/m3
- mass density (298.15 K, x1 = 0.961): 1384.4 kg/m3
- mass density (303.15 K, x1 = 0.8919): 1374.6 kg/m3
- mass density (303.15 K, x1 = 0.9091): 1376.2 kg/m3
- mass density (303.15 K, x1 = 0.9269): 1377.9 kg/m3
- mass density (303.15 K, x1 = 0.961): 1381 kg/m3
- mass density (308.15 K, x1 = 0.8621): 1365.3 kg/m3
- mass density (308.15 K, x1 = 0.8919): 1369 kg/m3
- mass density (308.15 K, x1 = 0.9091): 1370.9 kg/m3
- mass density (308.15 K, x1 = 0.9269): 1372.7 kg/m3
- mass density (308.15 K, x1 = 0.9443): 1373.9 kg/m3
- mass density (313.15 K, x1 = 0.8621): 1363.2 kg/m3
- mass density (313.15 K, x1 = 0.8919): 1366 kg/m3
- mass density (313.15 K, x1 = 0.9091): 1367.6 kg/m3
- mass density (313.15 K, x1 = 0.9269): 1369.7 kg/m3
- mass density (313.15 K, x1 = 0.9443): 1371.1 kg/m3
- mass density (313.15 K, x1 = 0.961): 1372.7 kg/m3
- mass density (318.15 K, x1 = 0.8621): 1357.6 kg/m3
- mass density (318.15 K, x1 = 0.8919): 1361.5 kg/m3
- mass density (318.15 K, x1 = 0.9091): 1363.2 kg/m3
- mass density (318.15 K, x1 = 0.9269): 1365 kg/m3
- mass density (318.15 K, x1 = 0.9443): 1366.5 kg/m3
- mass density (318.15 K, x1 = 0.961): 1368.1 kg/m3
- mass density (323.15 K, x1 = 0.9091): 1359.5 kg/m3
- mass density (323.15 K, x1 = 0.9269): 1361.3 kg/m3
- mass density (323.15 K, x1 = 0.9443): 1363 kg/m3
- mass density (328.15 K, x1 = 0.8919): 1353.7 kg/m3
- mass density (328.15 K, x1 = 0.9091): 1355.3 kg/m3
- mass density (328.15 K, x1 = 0.9269): 1357.1 kg/m3
- mass density (328.15 K, x1 = 0.9443): 1358.7 kg/m3
- mass density (333.15 K, x1 = 0.8621): 1346.7 kg/m3
- mass density (333.15 K, x1 = 0.8919): 1350.2 kg/m3
- mass density (333.15 K, x1 = 0.9269): 1353.8 kg/m3
- mass density (333.15 K, x1 = 0.9443): 1355.1 kg/m3
- mass density (338.15 K, x1 = 0.8621): 1344.1 kg/m3
- mass density (338.15 K, x1 = 0.8919): 1347.4 kg/m3
- mass density (338.15 K, x1 = 0.9091): 1349 kg/m3
- mass density (338.15 K, x1 = 0.9443): 1352.1 kg/m3
- mass density (338.15 K, x1 = 0.961): 1353.2 kg/m3
- mass density (343.15 K, x1 = 0.8621): 1340.2 kg/m3
- mass density (343.15 K, x1 = 0.9091): 1345 kg/m3
- mass density (343.15 K, x1 = 0.9269): 1346.7 kg/m3
- mass density (343.15 K, x1 = 0.9443): 1348.4 kg/m3
- mass density (343.15 K, x1 = 0.961): 1349.9 kg/m3
